Test results: a collection of fitness landscapes (doi:10.1016/j.celrep.2020.107928)
Whole data set: some 81,000 sequences, median “one-hybrid fitness for binding NBS DNA” near -0.1, cut for the highest 2% near 0.36. The list shows a part of the results.

B1: Caulobacter ParB omega fusion; a variant is named by its letters at X, in order, B8GW30 (parent)
chain: MESVVVGEPGMSEGRRGLGRGLSALLGEVDAAPAQAPGEQLGGSREAPIEILQRNPDQPRRTFREEDLEDLSNSIREKGVLQPILVRPSPDTAGEYQIVAGERAWRAAQRAGLKTVPIMVRELDDLAVLEIGIIENVQRADLNVLEEALSYKVLMEKFERTQENIAQTIGKSXSHVANXMRLLXLPDEVQSYLVSGELTAXHARAIAAAADPVALAKQIIEGGLSVRETEALARKAPNLSAGKSKGGRPPRVKDTDTQALESDLSSVLGLDVSIDHRGSTGTLTITYATLEQLDDLCNRLTRGI

Variants of: B1
Assay: one-hybrid fitness for binding NBS DNA (the Noc-binding site; scaled: cognate 1, non-cognate 0); higher = stronger binding
Conditions: with NBS DNA site
Summary of the method: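 Caulobacter ParB libraries with four specificity codons randomised were screened by bacterial one-hybrid selection in the E. coli USO strain, using a HIS3 reporter whose site lies 19 bp from the promoter. Selection ran for 48 hours at 37°C on M9 lacking histidine, with 0.1 mM IPTG and 5 mM 3-AT. Plasmids were Illumina-sequenced before and after selection, three replicate libraries were pooled, and variants with under 10 reads were dropped. Fitness is the log change in each variant's read ratio to wild type, rescaled against the cognate and non-cognate sites.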

Variant | one-hybrid fitness for binding NBS DNA
TYDW | ≤ 0.2
GGQL | ≤ 0.2
RLMC | ≤ 0.2
RNCA | ≤ 0.2
TGYH | ≤ 0.2
HGGG | ≤ 0.2
FFLI | ≤ 0.2
SLRA | ≤ 0.2
ADDG | ≤ 0.2
AEKG | ≤ 0.2
EYPT | ≤ 0.2
TQRC | ≤ 0.2
SRMG | ≤ 0.2
WAWW | ≤ 0.2
QFPR | ≤ 0.2
SILW | ≤ 0.2
AHGV | ≤ 0.2
TFNK | ≤ 0.2
YIPL | ≤ 0.2
KIAR | ≤ 0.2
QVTN | ≤ 0.2
WVMT | ≤ 0.2
RMFD | ≤ 0.2
GKME | ≤ 0.2
GCRA | ≤ 0.2

Variant | one-hybrid fitness for binding NBS DNA
HHRA | ≤ 0.2
QKVT | 0.44
CHAV | ≤ 0.2
LKSL | ≤ 0.2
SKPT | ≤ 0.2
VHIL | ≤ 0.2
HEPS | ≤ 0.2
HTVR | ≤ 0.2
HSSS | ≤ 0.2
ERCT | ≤ 0.2
TYKH | ≤ 0.2
VVGC | ≤ 0.2
PWRF | ≤ 0.2
NCHI | ≤ 0.2
AEHC | ≤ 0.2
TTEA | ≤ 0.2
KVCR | ≤ 0.2
CRQF | ≤ 0.2
NHNG | ≤ 0.2
ASRN | ≤ 0.2
LSKH | ≤ 0.2
GWNG | ≤ 0.2
KRQM | ≤ 0.2
YEGS | ≤ 0.2
TTQS | ≤ 0.2

Variant | one-hybrid fitness for binding NBS DNA
DETC | ≤ 0.2
QYDY | ≤ 0.2
LPQD | ≤ 0.2
RRCT | 0.77
SNSC | ≤ 0.2
MFPG | ≤ 0.2
LKMC | ≤ 0.2
RADH | ≤ 0.2
SIPY | ≤ 0.2
TVAV | ≤ 0.2
SNYL | ≤ 0.2
LTQG | ≤ 0.2
TVPL | ≤ 0.2
RWGA | ≤ 0.2
PDKA | ≤ 0.2
RIGM | ≤ 0.2
RHSM | ≤ 0.2
PGIR | ≤ 0.2
CKTW | ≤ 0.2
MMTI | ≤ 0.2
EYMV | ≤ 0.2
CNTA | ≤ 0.2
RYTC | ≤ 0.2
YGPM | ≤ 0.2
TKHK | ≤ 0.2

Variant | one-hybrid fitness for binding NBS DNA
QHDR | 0.336
VGWL | ≤ 0.2
RNSP | ≤ 0.2
TCHC | ≤ 0.2
YRKQ | ≤ 0.2
WTKT | ≤ 0.2
GLLK | ≤ 0.2
QPLG | ≤ 0.2
QSPQ | ≤ 0.2
VKRC | ≤ 0.2
WVIR | ≤ 0.2
QGAR | 0.255
KIYS | ≤ 0.2
RAAS | 0.368
RKPE | ≤ 0.2
SDQC | ≤ 0.2
QDYV | ≤ 0.2
AVAG | ≤ 0.2
GEDF | ≤ 0.2
RHVE | ≤ 0.2
SKKM | ≤ 0.2
CTIN | ≤ 0.2
